Assay results: PMC12136788
Some of the results follow.

T1: UNK ZnF1-3 (human, UniProt Q9C0B0 31-174)
T1 sequence: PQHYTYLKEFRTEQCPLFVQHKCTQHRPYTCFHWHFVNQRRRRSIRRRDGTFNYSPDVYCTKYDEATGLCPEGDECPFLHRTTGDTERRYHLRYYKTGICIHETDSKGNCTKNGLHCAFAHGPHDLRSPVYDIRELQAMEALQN

B1: chr15:98780342:98780343:-_ENSMUSG00000072235_ENSMUST00000097014|mus_hu|FALSE|FALSE (ssRNA)
RNA: GGGAGUUCUACAGUCCGACGAUCAACCCAUCACAGAAAUGGACAGCUUGGGUCUGUAACAAAGCAUUCAUGUUUUAGAGCAUAGGUCAGUAAUUGUAUAUGAGAGCAUACACUGCUACAUACAAAUUAACUGAUCAGACCACACAACAGAGGAUUGAGCAUCA
B2: chr17:65740002:65740003:+_ENSG00000130935_ENST00000581375|hu_hu|hu_hu_hu_mus_False|1_48 (ssRNA)
RNA: GGGAGUUCUACAGUCCGACGAUCAACAAAUCUUUCUUCCCUGGACGAACAGGAAGAUUCAUAUUAAAAAAAAUAUAUAUCCAUCAAGGAGAAUUGAGUGGCCACACCUUUACUCCCAGCACUUUGGGAGGUGGAUCCUCUAUUCAACAGAGGAUUGAGCAUCA
B3: chr5:28742860:28742861:+_ENSMUSG00000048271_ENSMUST00000114884|mus_mus|FALSE|FALSE (ssRNA)
RNA: GGGAGUUCUACAGUCCGACGAUCAGAAUCUCUUGAAAAAGAAAAGGUGAGAUUUCCUCCUCAAGAAGAGUAUCAAUAUAAUAAGGAUUUAACAAAUGUGGCCAAGCCAAGGGCAGCAUAAGGUUAUGUUCAGGUAAGCAGCUGCAACAGAGGAUUGAGCAUCA
B4: chr1:93988920:93988921:+_ENSG00000137942_ENST00000370253|hu_mus|motif|central (ssRNA)
RNA: GGGAGUUCUACAGUCCGACGAUCCAGAUCAUGGGCAUAUCUCAUUAAUUCACCAUAUACUCUGUGCGCCAUUUCUUCUGCGGCGGCCUCUCGCUGUCCUGCAUAGUCGUUUAACUCAUUAAGGAUGUUAAAAAAGGCGAUACACAACAGAGGAUUGAGCAUCA
B5: chr19:10058675:10058676:+_ENSMUSG00000024661_ENSMUST00000025563|mus_mus|FALSE|FALSE (ssRNA)
RNA: GGGAGUUCUACAGUCCGACGAUCUUGGUGGAGAAAGUAUUUGGCAAAGUUCUUCAGAGCCACAUCAUCUCGGUCAAAAUAACAAGACAUAGACAGAUAGACGUAGGAGGCAUACAACUCCAGGUUGAUCUGGCGGUUGAUGGCCAACAGAGGAUUGAGCAUCA
B6: chr18:90710673:90710674:+_ENSMUSG00000024614_ENSMUST00000025515|mus_hu|motif|central (ssRNA)
RNA: GGGAGUUCUACAGUCCGACGAUCGUUGCCUAAUAUAAAUUCUAAACUUAGCUAAAAUGAAGGCCUCAAAAAUAAUUUAUCGGCAAUAAACAUACCAAACUGUUACUUUAAAAAAAAGAGUUUUUAGACAUUGCUUUGGAAAGACAACAGAGGAUUGAGCAUCA
B7: chr4:45823916:45823917:-_ENSMUSG00000035551_ENSMUST00000044297|mus_mus|motif|central (ssRNA)
RNA: GGGAGUUCUACAGUCCGACGAUCGAUAGGGGUACAGGGACCCCCUCCCUUCAUAACACGCACCAAAUCAGAGCACCCACGGAGCAGUUACAGACACCAAGUCACGAGUCAGCUGGCCUGUGCCUUGUUUUGAGCCCUUUAGAACAACAGAGGAUUGAGCAUCA
B8: chr1:220276048:220276049:+_ENSG00000067704_ENST00000302637|hu_hu|hu_hu_hu_mus_True|28_48 (ssRNA)
RNA: GGGAGUUCUACAGUCCGACGAUCGCAAAUUGCCUGGUUGGCGGGAAUUGUCCAAGGCUGGGUGGUCCAAACUAAAACGCUAACAGGAGAUGAACCAUCUGUAAGAGAUGCCAAUUUCGGAGGAGGUCUCAGGAGGGGGAAUCUCAACAGAGGAUUGAGCAUCA
B9: chr20:33128396:33128397:+_ENSG00000125971_ENST00000357156|hu_mus|FALSE|FALSE (ssRNA)
RNA: GGGAGUUCUACAGUCCGACGAUCGACACAGGAAGCCCAGACAGUGGCUUAUUCAGUUGGAUUCUGGAUCACAAUCAGGAAAUAGUCUUUAUCUGGUGCCACCAUAAUUUCAUUUUUCUUGGAGCGAAUUCGAAGGAAGGUUAGCAACAGAGGAUUGAGCAUCA
B10: chr16:94664382:94664383:+_ENSMUSG00000040785_ENSMUST00000117648|mus_mus|motif|central (ssRNA)
RNA: GGGAGUUCUACAGUCCGACGAUCUCCUGGUAUGGACUUCACAUCCUCAGACAGUGCUUCAGACUUUACAUCUGGUUGAAAUUCCCGGGCAGUUGGAUUUAGUGGUAGUUUAACUCGUAAAUAUUCUCCUGUUUUUGAAAUGUCCAACAGAGGAUUGAGCAUCA
B11: chr19:16212804:16212805:+_ENSG00000167460_ENST00000300933|hu_mus|hu_hu_hu_mus_False|1_38 (ssRNA)
RNA: GGGAGUUCUACAGUCCGACGAUCAACAAUUCUGGAGUGAAGGAAAGAUGUAACAUGGAACAGCAUUAAAGCUCAGUCAGAAGGCACAUGGGCAACAAUGACUAUUUCAGCAUUCUCGCUUGGAAUGCUUAAAGACAGAUGUUUCAACAGAGGAUUGAGCAUCA
B12: 45022524_45023563_2369_3pUTR_ENSMUSG00000036097_ENSMUST00000096053|mouse|control|control (ssRNA)
RNA: GGGAGUUCUACAGUCCGACGAUCUGAUUGAAAAUUUUUCCAGAAUUGAGGAAAUUAAAUAUUUCUUCACCUGGAUGAUGAUCAGGAAUAGCAUCAACUGUAACUGAAAAUUUCUUUAGAAAUUCCCUGUGUUCUUCCAAGAGGCAACAGAGGAUUGAGCAUCA
B13: chr5:89070800:89070801:+_ENSMUSG00000029291_ENSMUST00000031229|mus_hu|FALSE|FALSE (ssRNA)
RNA: GGGAGUUCUACAGUCCGACGAUCUGAAGGAAUGAAGGCUUAUGUAAAGCCUGUCUCUUCAAAUCAAAAAUCAUCUUAAAAAAUCAAACUGUUUAUAGGAUUAUUUACAAUGUUAAAGCCUAGAAAGGGUUAGUCUGUGGUCACCAACAGAGGAUUGAGCAUCA
B14: 101967460_101969148_417_5pUTR_ENSG00000158301_ENST00000332262|human|control|control (ssRNA)
RNA: GGGAGUUCUACAGUCCGACGAUCGUGUCAAGCCCCACAGCUGACAGAAGGGGGUCCUCCAGAGCUGUGAGCCAGUCUCCUCCUCCUUGCCUUUCUUGCAGAAUUGGCCAGCCUUAAAGUAGGCCUUCAGAGGCCCAGGGCCCACAACAGAGGAUUGAGCAUCA
B15: chr2:32526493:32526494:+_ENSG00000119820_ENST00000437765|hu_hu|FALSE|FALSE (ssRNA)
RNA: GGGAGUUCUACAGUCCGACGAUCGAUCCAACCACCAAAAGUACAGGGGCUAUUACAAUGAGAGGAAGUAAUGAAUAUCCUAUAACUCCAAGGACUUGGCCAUAUGCAACUUCUCCACCAAGAACUCUGGCCAGUAAGAAAAUUCAACAGAGGAUUGAGCAUCA
B16: chr4:140556289:140556290:+_ENSMUSG00000036622_ENSMUST00000037055|mus_mus|mus_mus_mus_hu_False|8_38 (ssRNA)
RNA: GGGAGUUCUACAGUCCGACGAUCGAUGGAGCUCACCAGGCCCCCUUUUGCCGUGCAGAACCCUGUGCGGGUCACCACUGCCAGGACGUGCGGUCCCACGUAGGCUCGGGCCUGCAAGAUGAGGGUCCCACAGAAGAGUGUGUGCAACAGAGGAUUGAGCAUCA
B17: chr2:216986912:216986913:+_ENSG00000079246_ENST00000392132|hu_hu|motif|central (ssRNA)
RNA: GGGAGUUCUACAGUCCGACGAUCCAGUUUUCUCAGACUCUCACUGAAUGAAUAAAUUUCAUCCAACCCAUCUUCACCUUCGGAAGAUAUCAUCACCAUUUUCACUAUCUCAAGACCUUCUUUUUGCUGUUCGGUAAUUCCUUUCAACAGAGGAUUGAGCAUCA
B18: chr12:16048344:16048345:+_ENSG00000023734_ENST00000419869|hu_hu|hu_hu_hu_mus_True|1_78 (ssRNA)
RNA: GGGAGUUCUACAGUCCGACGAUCAGAUCGUCCAUAAGUAAUAACCAAAAUCUCUCCCUCAGGAAUAUACUCCAUGCUGCUAACAGACAUAUUAAAAUUCAGAGAUUUCACUUCUGUCAUUGUGGCAUGAUCCCAGAGUCGAACCAACAGAGGAUUGAGCAUCA
B19: 53430807_53432045_2282_CDS_ENSG00000072501_ENST00000322213|human|control|control (ssRNA)
RNA: GGGAGUUCUACAGUCCGACGAUCCUCCAGCUUGGAUUUUUCCUGCAGAUUCAGGGCUAGAUGUCGUGUCUUGGUCUGUUCUAGGUCACUCUGGGAGUACUUGAGCCGCAUCUGCAGUCCAUGGGCCUGAGACUGCACCUGACGCAACAGAGGAUUGAGCAUCA
B20: chr8:95500983:95500984:-_ENSG00000164944_ENST00000437199|hu_hu|hu_hu_hu_mus_True|18_108 (ssRNA)
RNA: GGGAGUUCUACAGUCCGACGAUCAGAAGGAUUUUUACGAGUAAAGGACCGUACAUGACGGCCUCUACCACUGCCUCCACUAACAAACUUUCCUCUCGAGCCUCCACUGCCGCUAUUUUGCACUAGCCAGGACGGUCCCAGGCCCAACAGAGGAUUGAGCAUCA
B21: chr1:58468927:58468928:-_ENSMUSG00000026034_ENSMUST00000148330|mus_mus|mus_mus_mus_hu_False|8_98 (ssRNA)
RNA: GGGAGUUCUACAGUCCGACGAUCAAUUACUGAAAAAUGAAAGAUGUACCUUAGCUAUGUACUUAAUGAACCAAAUUACCCAAACAAAAUAAACAUGGCAAUAUAAAAAUGUUAAGAAUUUACAAAGAUUAAAAGCUUAACUUACAACAGAGGAUUGAGCAUCA
B22: chr11:97543600:97543601:+_ENSMUSG00000038437_ENSMUST00000044730|mus_mus|FALSE|FALSE (ssRNA)
RNA: GGGAGUUCUACAGUCCGACGAUCUUGGCUGCCCCAGGUCCAGAGGAAGAAAUGACAGAUAGACAGACAGGUUAAACAGACUAACCAUCUCUCUCUUUUUCUCUCACUCACACACACACUCACACACUCACAAUCUGUGGAGUCCAACAGAGGAUUGAGCAUCA

What follows are binders tested against T1, UNK ZnF1-3 (assay: nsRBNS (natural sequence RNA bind-n-seq); RBNS binding buffer (assumed for nsRBNS): 25 mM Tris pH 7.5, 150 mM KCl, 3 mM MgCl2, 0.01% Triton X-100, 500 ug/ml BSA, 20 U/ml SUPERase-In, 4 C; UNK is unkempt and MSI1 is Musashi-1; names of the RNAs are library labels; protein concentration not given here; high values mean tight binding).

Binder	binding signal [enrichment R]
B1	0.901
B2	1.82
B3	1.72
B4	0.873
B5	1.44
B6	1.55
B7	1.17
B8	2.07
B9	1.14
B10	0.66
B11	1.23
B12	1.47
B13	0.865
B14	0.914
B15	1.74
B16	1.15
B17	0.792
B18	1.1
B19	0.654
B20	1.15
B21	1.87
B22	1.48
